The results in this text go back to article PMC12136788.

Some of the results follow.

First the molecules themselves.
T1: UNK ZnF1-3 (human, UniProt Q9C0B0 31-174)
T1 sequence: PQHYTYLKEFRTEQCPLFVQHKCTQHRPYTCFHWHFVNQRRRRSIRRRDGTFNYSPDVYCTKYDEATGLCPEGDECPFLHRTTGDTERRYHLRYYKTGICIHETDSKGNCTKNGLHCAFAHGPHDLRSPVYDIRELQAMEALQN

B1: 37595425_37596737_584_3pUTR_ENSG00000125686_ENST00000300651|human|control|control (ssRNA)
RNA: GGGAGUUCUACAGUCCGACGAUCCUGUACAAGCUCCGGACAGCUCACAGGAUUCUCCCCAUGGUGAGCCACUUUUACAUCACAAAGCUGUCCUGCAGGAUCUAACUGCACUUCCACAUAGAACAUAUCUGACGUGAUGUAACACAACAGAGGAUUGAGCAUCA
B2: chr9:50413139:50413140:+_ENSMUSG00000039016_ENSMUST00000044051|mus_mus|motif|central (ssRNA)
RNA: GGGAGUUCUACAGUCCGACGAUCGAUCUGGGCAAACCGACCGGUGAUGGCAAGAGUAGUGUCAAUGAAGCGAUCCACACAGCGGGAGAGGCAGUUUUCAGUGCGGGAGUCUAGCCGACUUCCUGGCUUCUCCACACACUUAUCCAACAGAGGAUUGAGCAUCA
B3: 130301972_130310283_429_3pUTR_ENSMUSG00000026356_ENSMUST00000027602|mouse|control|control (ssRNA)
RNA: GGGAGUUCUACAGUCCGACGAUCGCAUGGUCUCCCACCGCCACAAGAGCCUGGACAUUAAACUGCUGCUGCCUCAGGACUAAGAAGCACUGCUUCCCUUUUGCUCUGCUUGUAUGAACUCUUGCACGGACCCAAACAACAUCACAACAGAGGAUUGAGCAUCA
B4: chr1:58468927:58468928:-_ENSMUSG00000026034_ENSMUST00000148330|mus_mus|mus_mus_mus_hu_False|38_48 (ssRNA)
RNA: GGGAGUUCUACAGUCCGACGAUCAAUUACUGAAAAAGAUGUUCAUUACCUUAGCUAUGUACUUAAUGAACCAAAUUACCCAAACAACAUAAAAUGUUUUACAAAUUAAUGUUAAGAAUUUACAAAGCUGUACAAAAUAACUUACAACAGAGGAUUGAGCAUCA
B5: 108160858_108160978_3285_3pUTR_ENSMUSG00000068747_ENSMUST00000102632|mouse|control|control (ssRNA)
RNA: GGGAGUUCUACAGUCCGACGAUCAGUACAGCCUGAAAGAGCUCAGAAGCAGCCAGUUUUGUCUUUAAUAGGUGUCAGAGCUAGUCAAUUCUCUGCCUCCCUCUUGCCACAAGUUAAAAAUAUUGCCCUGUAAGUUUUCCCUAUCAACAGAGGAUUGAGCAUCA
B6: 6328396_6329179_411_3pUTR_ENSMUSG00000041126_ENSMUST00000109737|mouse|control|control (ssRNA)
RNA: GGGAGUUCUACAGUCCGACGAUCUCUUUCCAAUCAGAGACUUGUGGAUGUGCGGGAUCACGCCGCCCCCGGCUAUGGUGGCCUUGAUAAGAGAAUCCAACUCUUCAUCACCGCGGAUUGCAAGCUGUAAGUGACGUGGGGUGACAACAGAGGAUUGAGCAUCA
B7: chr19:36946997:36946998:+_ENSMUSG00000024811_ENSMUST00000025729|mus_mus|FALSE|FALSE (ssRNA)
RNA: GGGAGUUCUACAGUCCGACGAUCAUAUUUUCCUUUUGCUGCAGCUUCAUGUAAAGGUGUGAACUUCCACAAGUCAGCGACAUUGACUACUGCUCCAUGCUUGACAAGAAGUUCUGCAACUUCAUAGUGUCCAUAAGAACAUGCCAACAGAGGAUUGAGCAUCA
B8: 47913461_47913581_2477_CDS_ENSG00000047849_ENST00000395734|human|control|control (ssRNA)
RNA: GGGAGUUCUACAGUCCGACGAUCGGCAACAGCAGCAGCUGUUGUGGUUUUUGCAACAGUCUGAGUGCUCUUGGACCCAGAUCUGGAGGCUGGGGCAGAAGCUGGCUUGGAUGGUGAGGCCCGCUUCUCAGGAGCCUUUGCAUCCAACAGAGGAUUGAGCAUCA
B9: chr12:84935825:84935826:-_ENSMUSG00000042628_ENSMUST00000048319|mus_mus|motif|central (ssRNA)
RNA: GGGAGUUCUACAGUCCGACGAUCUCCCACUGCAUGCAUAACUCUCCUGGCACAUGAGCCCCGGAUUUAGGCCCUUCUCUGCGGGGGAAGUCUGGGCACUCAUAACUUAGACUCGUUUGGAAACCACCCACCCUGCAACAGUCACAACAGAGGAUUGAGCAUCA
B10: chrX:43605437:43605438:+_ENSG00000189221_ENST00000338702|hu_hu|FALSE|FALSE (ssRNA)
RNA: GGGAGUUCUACAGUCCGACGAUCAAGAAGUUUAAAUCAGCAUUUCCCAAAAGGUGUGUCAGGACUGAGUUAAUCAGUAAGCUAAUAGAAACAACUGCAAUAGACUAGGGAUGAGAUUUCUCAAAGCAGUCUGAUAUAAUAUGCCAACAGAGGAUUGAGCAUCA
B11: chr3:9412954:9412955:+_ENSG00000134077_ENST00000452837|hu_mus|hu_hu_hu_mus_False|38_68 (ssRNA)
RNA: GGGAGUUCUACAGUCCGACGAUCGGUUGAUAUCUCUUCUUUGAUGGCUGGAUUUUCAUAAUAGUCCAAGAUAUGAGAAUCUGAAGUGCUGCUGGCAAACUCUUUUUUACCAUCUUUCUCAUCUGCUUUGUCUCCUUGUCCACACAACAGAGGAUUGAGCAUCA
B12: chr14:89307221:89307222:+_ENSG00000165533_ENST00000346301|hu_mus|hu_hu_hu_mus_False|28_108 (ssRNA)
RNA: GGGAGUUCUACAGUCCGACGAUCUCCUGUCUGAUUAGUGCCAGGGAGCUUCAAAGAUGUGCCAGGGCGUGGGACCUGAGCAAUAGCAUUUUCAUCCAGGAUCAUUUCUGCAAUUCCUUCCUGGUCCACAUCAAUUUCAUCUAUCAACAGAGGAUUGAGCAUCA
B13: chr10:33214929:33214930:-_ENSG00000150093_ENST00000302278|hu_hu|hu_hu_hu_mus_True|8_98 (ssRNA)
RNA: GGGAGUUCUACAGUCCGACGAUCAACAAGUUCAUUGAAUACUUCUCCUCUGUCAGUAAGACUAAGCACAUUUUUGUAGCUAAAUGGGCUGGUGCAGUUUUGUUCACUUGUACAAGGAUUUCUUAGCUUAGCUGGUGUUGUGCUCAACAGAGGAUUGAGCAUCA
B14: 75008230_75008350_2263_CDS_ENSMUSG00000034593_ENSMUST00000123128|mouse|control|control (ssRNA)
RNA: GGGAGUUCUACAGUCCGACGAUCCUGGCCAGGUCGGCCCUUGGUGGGCUUUACAGGAACUCGAGUGAGAGGAGUGCGCCCUGAGGAGGUGGCAGAGGUGGGACUGAUGGCCUUCUCAUCAUCUUGAAAUAGCUCUGGUAGCAUCAACAGAGGAUUGAGCAUCA
B15: 152117304_152117424_2211_3pUTR_ENSMUSG00000070348_ENSMUST00000093962|mouse|control|control (ssRNA)
RNA: GGGAGUUCUACAGUCCGACGAUCUCCCCAAUCUCCUUGUCCAGGUAAUGCCAUCAUGGUUCCUACUUCCAAACACCAGCUGGCACCAAAGGAUCCCUUCAACUUUGCAGGACAGAUCCCGGUGGUGCGAGAACAGAGUUCUCUCAACAGAGGAUUGAGCAUCA
B16: chr5:72858467:72858468:-_ENSG00000164331_ENST00000296785|hu_mus|FALSE|FALSE (ssRNA)
RNA: GGGAGUUCUACAGUCCGACGAUCUUUAAAUAAGACAGAUGCCACCUCCAGGUCAGAGUUAACUUGAUCUUGAAUAUUUUUACUAUCCUCUUCAUUUAAGGACUUCACGAAUCGAGAACACACGUUCAUAUCAAAUCGGUUUGGCAACAGAGGAUUGAGCAUCA
B17: chr2:69032557:69032558:-_ENSMUSG00000005233_ENSMUST00000005365|mus_hu|FALSE|FALSE (ssRNA)
RNA: GGGAGUUCUACAGUCCGACGAUCAUUGGCAAGAAAAGCUGAAAAAUUGUUGGUCUUCCUUACAUUCUCUUGAAAUUCUGCUAGGCCCUCAAGAUGAGGGGCACUAUCUGACACUUCAUAGUCCCUUGCUUCAUUGAGAUGUAACAACAGAGGAUUGAGCAUCA
B18: chr4:76721835:76721836:+_ENSG00000138768_ENST00000264904|hu_mus|hu_hu_hu_mus_True|48_98 (ssRNA)
RNA: GGGAGUUCUACAGUCCGACGAUCGUUUGGCUGGGGUUCUGAGAUGCCUCUGGAAUAUAACUCAUGUUUGCUAAUAAAUCCUAGUUUUCUAUGAAAUUUCUCUUUGCCAAUCCUCUUCUCUAUUAGUUGCUUUAGUUUCUCUUUCAACAGAGGAUUGAGCAUCA
B19: 99248344_99248570_1061_CDS_ENSMUSG00000019761_ENSMUST00000103131|mouse|control|control (ssRNA)
RNA: GGGAGUUCUACAGUCCGACGAUCACCCUGAACAGUACGUCUCAAUUCAGUGAUUUCAGACUUAUGGCUGGACAUUUGUUCAAUGUUGCUGUCGAUUUCUGUGGUGAGUUCCUUGCUCUUCUGAUUGAACCACUCUUCAGCAUCCAACAGAGGAUUGAGCAUCA
B20: chr16:38184571:38184572:+_ENSMUSG00000022812_ENSMUST00000023507|mus_hu|FALSE|FALSE (ssRNA)
RNA: GGGAGUUCUACAGUCCGACGAUCCAGCUGAUACAUAUACAACUUGACAUAAAUCACAGGGAGCGUCUGUUUGGCUCGACUAUAGUGUCUGGCAACUCUGUAUACUGUUUCCGGAACAUAGUCCAGCACCAGAUUAAGAUAGACCAACAGAGGAUUGAGCAUCA
B21: 79779014_79781414_1272_CDS_ENSG00000148606_ENST00000372371|human|control|control (ssRNA)
RNA: GGGAGUUCUACAGUCCGACGAUCUUUGUUUACCUUCUCAGGAAAAGUUAGAAUUUUGGCCACAUGAACUGGCACAGCUACCUCAUCAAUCCGGAGGUUGGGGUCGGGCGAGAUGACUGUUCUGCCAGAAAAAUCCACUCUCUUCAACAGAGGAUUGAGCAUCA
B22: chr19:16212804:16212805:+_ENSG00000167460_ENST00000300933|hu_mus|hu_hu_hu_mus_False|58_88 (ssRNA)
RNA: GGGAGUUCUACAGUCCGACGAUCAACAAUUCUGGAGUGAAGGAAAGCAUCAAGGAUGAACAGCAUUAAAGCUCAGUAUUACUAUAUAUGGGCAACAAUGAUCACCCCAGCAUUCUCGCUUGGAAUGCUUAAAGACAAUCUGUUCAACAGAGGAUUGAGCAUCA

The target of this test is T1, UNK ZnF1-3. In words: nsRBNS (natural sequence RNA bind-n-seq); RBNS binding buffer (assumed for nsRBNS): 25 mM Tris pH 7.5, 150 mM KCl, 3 mM MgCl2, 0.01% Triton X-100, 500 ug/ml BSA, 20 U/ml SUPERase-In, 4 C; UNK is unkempt and MSI1 is Musashi-1; names of the RNAs are library labels; protein concentration not given here; high values mean tight binding.
In turn, B1 displayed a binding signal of 0.74 enrichment R. For B2 the value was 1.55 enrichment R. Under B3 stands 1.28 enrichment R.

Regarding B4, the binding signal amounted to 0.462 enrichment R. Under B5 stands 1.71 enrichment R; under B6, 0.897 enrichment R; under B7, 0.761 enrichment R. For B8 the value was 0.637 enrichment R; for B9, 1.34 enrichment R. For B10 the value was 1.9 enrichment R; for B11, 0.523 enrichment R; for B12, 0.728 enrichment R.

The molecule B13 showed a binding signal of 0.821 enrichment R.

B14 returned a binding signal of 1.43 enrichment R. For B15 the value was 0.935 enrichment R; for B16, 0.905 enrichment R; for B17, 0.614 enrichment R. As for B18, the binding signal is 0.527 enrichment R. The molecule B19 yielded a binding signal of 0.354 enrichment R. Under B20 stands 0.903 enrichment R; under B21, 0.902 enrichment R. Under B22 stands 1.31 enrichment R.
